#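 All cell lines were grown in 96-well plates and treated with compound for 48 hours. Abbreviation: GI50, concentration required for 50% inhibition of growth.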 Calls of active or inactive are those of the source. Cut-off read from the data, not from the text of the source: active = GI50 up to about 1.1 µM and inactive = higher.
# Tested on: NCI-H322M
# Assay: NCI-60 cell line screen, 48 h
row,Compound,GI50
1,COCc1nc(C#N)c(N)o1,inactive: > 10 µM
2,CCC12CCCN(Cc3ccccc3)C1c1c(n(C)c3ccccc13)C(C(=O)OC)C2 (centres undefined),inactive: 164 µM
3,CC(C)CCC[C@@H](C)[C@H]1CC[C@H]2[C@@H]3CC[C@H]4C[C@@H](CCC=C(c5cc(Cl)c(O)c(C(=O)O)c5)c5cc(Cl)c(O)c(C(=O)O)c5)CC[C@]4(C)[C@H]3CC[C@]12C,inactive: 98.2 µM
4,COC(=O)C[C@](O)(CCC(C)(C)O)C(=O)O[C@@H]1C(OC)=C[C@]23CCCN2CCc2cc4c(cc2[C@H]13)OCO4 [HARRINGTONINE],active: 0.311 µM
5,C=C1C(=O)OC2/C=C(CO)/C=C\C3OC3(C)CC(OC(=O)/C(C)=C/COC(C)=O)C12 (centres undefined),inactive: 14.9 µM
6,[O-]c1c2c(nn1-c1ccccc1)c1ccccc1c[n+]2Cc1ccccc1,inactive: > 100 µM
7,CC1C(=O)C(C)C(c2ccco2)N(N=O)C1c1ccco1 (centres undefined),inactive: > 100 µM
8,Cc1ccc(Cl)cc1/N=N/C(=O)NNc1cc(Cl)ccc1C,inactive: 28.3 µM
9,Cc1cc2c(cc1C)OC(=O)CC2,inactive: > 100 µM
10,c1ccc2c(c1)C1=NCCN1c1ccccc1-2,inactive: 2.42 µM
11,[N-]=[N+]=Nc1ccccc1C(=O)N1C(=O)c2ccccc2C(=O)N(C(=O)c2ccccc2N=[N+]=[N-])c2ccccc21,inactive: > 100 µM
12,O=[N+]([O-])c1ccc2nc3n(c2c1)C(c1c(F)cccc1F)SC3 (centres undefined),inactive: > 100 µM
13,Cc1ccc(S(=O)(=O)NC(=O)NC(CC(N)=O)C(=O)O)cc1 (centres undefined),inactive: > 100 µM
14,Cc1c(O)c(=O)ccn1C1OC(CO)C(O)C1O (centres undefined),inactive: > 100 µM
15,CC1=Nc2c(C#N)ncn2N=C(C)C1,inactive: > 100 µM
16,COc1ccccc1C1c2cc3c(cc2OC2(OC)COC(=O)C12)OCO3 (centres undefined),inactive: 40.6 µM
17,COP(=O)(OC)/C(=N\Nc1ccc([N+](=O)[O-])cc1)NCc1ccccc1,inactive: 16.1 µM
18,COc1ccc([N+](=O)[O-])cc1[I+]c1cc([N+](=O)[O-])ccc1OC,inactive: > 100 µM
19,COC1=CC(=O)C2C(C1=O)C(c1ccc(OC)c(OC)c1)[C@H]2C (some centres undefined),inactive: > 100 µM
20,Cn1cnc([N+](=O)[O-])c1Sc1nc2cccnc2[nH]1,inactive: > 100 µM
21,O=C1C(Cl)N(c2ccccc2[N+](=O)[O-])C1c1c[nH]c2ccccc12 (centres undefined),inactive: > 100 µM
22,COc1ccc(/C=N/c2ccc(-c3nc4ccccc4s3)cc2)cc1OC,inactive: 43.4 µM
23,Cc1nc2ccccc2c(=O)n1-c1n[nH]c2ccccc12,inactive: > 100 µM

row,Compound,GI50
1,CCOc1cc2cnc3c4cc(OC)c(OC)cc4ccc3c2cc1OC,inactive: > 100 µM
2,[N-]=[N+]=NC1(c2ccccc2)C(=O)C(Cl)=C(c2ccccc2)N(c2ccccc2)C1=O (centres undefined),inactive: > 100 µM
3,COC1CC(C)([N+](=O)[O-])C(O)C(C)O1 (centres undefined),inactive: > 100 µM
4,CCOC(=O)/C(=C/c1ccc(C(=O)OC)cc1)N(CC)CC,inactive: 69.2 µM
5,O=S(=O)(N/C(=N\O)Nc1ccc(Cl)cc1)c1cc(S(=O)(=O)c2ccccc2)cs1,inactive: 15.5 µM
6,CCS(=O)(=O)c1c2cc(OC)ccc2nc2ccc(OC)cc12,inactive: > 100 µM
7,Cc1ccc(C2c3c(n(C)c(=O)n(C)c3=O)OC(N(C)C)(N(C)C)C2(F)F)cc1 (centres undefined),inactive: > 100 µM
8,NC1=NN(c2ccccc2)C(=O)C1C(=O)C(=O)Nc1ccccc1 (centres undefined),inactive: > 100 µM
9,N=c1n(C(=O)N2CCCC2)c2cc(Cl)ccc2n1C1=NCCN1,inactive: > 100 µM
10,COc1ccc(C2=NN(C(C)=O)c3nc4ccccc4nc3O2)cc1,inactive: 61.4 µM
11,CCOC(=O)/C(C#N)=C\C=C1/C=CN=C2NCCN21,inactive: > 100 µM
12,CN(N=O)C(=O)ON1C(=O)CCC1=O,inactive: > 100 µM
13,CN(C)c1ccc2oc(=O)c3ccccc3c2c1,inactive: > 100 µM
14,O=C(O)CC(Sc1ccccc1)c1ccccc1 (centres undefined),inactive: > 100 µM
15,NNC(=O)N/N=C1\CN(c2ccc(Cl)cc2Cl)C(=O)C(=O)C1c1nc2ccccc2o1 (centres undefined),inactive: > 100 µM
16,CCOC(=O)CSc1nnc2cc(CN3CCCC3)c(-c3ccc(Cl)cc3)nn12,inactive: 25.2 µM
17,CC(C)(C)[Si](C)(C)OC1(CCc2ccccc2OS(=O)(=O)C(F)(F)F)CCCC=C1COCc1ccccc1 (centres undefined),inactive: > 100 µM
18,OCC(O)C(OC1OC(CO)C(O)C(O)C1O)c1nn(-c2ccc(F)cc2)c2nc3cc(Cl)c(Cl)cc3cc12 (centres undefined),inactive: > 100 µM
19,COC(=O)c1oc([N+](=O)[O-])c(Cl)c1Cl,inactive: 13.2 µM
20,COc1cc(-c2c(C#N)c(N)c(C#N)c3c2COc2ccccc2-3)cc(OC)c1OC,inactive: > 26.5 µM
21,c1ccc([P+](c2ccccc2)(c2ccccc2)c2ccc([P+](c3ccccc3)(c3ccccc3)c3ccccc3)c3ccccc23)cc1,inactive: > 100 µM
22,N#Cc1nc(/C=C/c2nc(C#N)c(N)o2)oc1N,inactive: > 10 µM
23,Cn1ncc2c(NCc3ccccc3)ncnc21,inactive: > 100 µM

row,Compound,GI50
1,CCn1c(=O)c2c3cc(OC(C)=O)ccc3oc2c2ccc(OC(C)=O)cc21,inactive: 36.4 µM
2,CC(C)(C)c1cc(C2=NN(c3ccccc3)C(c3ccccc3)C2)cc(C(C)(C)C)c1O (centres undefined),inactive: > 100 µM
3,[N-]=[N+]=CC(=O)C1CCN(c2ccccc2)C1=O (centres undefined),inactive: > 10 µM
4,CCOC(=O)C(Cc1cn(S(=O)(=O)c2ccccc2)c2ccccc12)(NC(C)=O)C(=O)OCC,inactive: > 100 µM
5,CC(=O)c1cc(C)n2c1CS[C@@H]2c1ccccc1,inactive: 92.7 µM
6,CC(=N\N=C\c1ccccn1)/C(C)=N/N=C(C)/C(C)=N/N=C/c1ccccn1,inactive: > 100 µM
7,COc1ccc2nc3c(C(=O)NCCN(C)C)cccc3cc2c1,inactive: 2.07 µM
8,c1ccc2nc(CCC3CCCCN3)ccc2c1 (centres undefined),inactive: > 100 µM
9,COC(=O)N/N=C(\C)C(CN1CCOCC1)C(c1ccccc1)c1cc2ccccc2oc1=O (centres undefined),inactive: > 100 µM
10,Cc1ccc(C(=O)/C=C/c2cccc([N+](=O)[O-])c2)cc1,inactive: > 100 µM
11,C=C(C(N)=O)c1ccc([N+](=O)[O-])o1,inactive: 22.1 µM
12,COc1ccc(OC)c(C[P+](c2ccccc2)(c2ccccc2)c2ccccc2)c1,inactive: 5.32 µM
13,CC(N)(/C=C/c1ccccc1)C(=O)O (centres undefined),inactive: > 100 µM
14,CCS(=O)(=O)CCn1c(=O)c2c(ncn2C)n(C)c1=O,inactive: > 100 µM
15,O=C(CN1CCCCC1)Nc1ccc2sc3ccccc3c(=O)c2n1,inactive: 17.7 µM
16,COC(=O)/C=C/c1ccccc1N=[S@](C)(=O)c1ccc(C)cc1,inactive: 36.2 µM
17,Nc1c(-c2cccc3ccccc23)c2ccc([N+](=O)[O-])cc2c(=O)n1-c1nc2ccccc2s1,inactive: 5.32 µM
18,Cc1ccc(Oc2ccc(C)cc2N)cc1,inactive: > 100 µM
19,N#Cc1c(-c2cccc(Cl)c2)cc(-c2ccc(Cl)cc2)nc1N,inactive: 22.2 µM
20,O=C(Nc1ccccc1F)c1cc2ccc(O)cc2o/c1=N\c1cccc(F)c1,inactive: 3.92 µM
21,CC(C)(Cl)C(Br)CC/C(=C/CBr)CBr.CC(C)(Cl)C(Br)CC/C(=C\CBr)CBr (centres undefined),inactive: 14.8 µM
22,CCOC(OCC)C(CCc1ccccc1)c1c(N)nc(N)[nH]c1=O (centres undefined),inactive: > 100 µM
23,Nc1ccn(C2CC(O)C(COP(=O)(S)OC3CC(n4ccc(N)nc4=O)OC3CO)O2)c(=O)n1 (centres undefined),inactive: > 100 µM

row,Compound,GI50
1,CC1CC[C@@]2(OC1)O[C@H]1[C@H](O)[C@H]3[C@@H]4CC[C@H]5C[C@@H](OC6OC(CO)C(OC7OC(CO)C(O)C(OC8OCC(O)C(O)C8O)C7OC7OC(CO)C(O)C(O)C7OC7OC(CO)C(O)C(O)C7O)C(O)C6O)[C@H](O)C[C@]5(C)[C@H]4CC[C@]3(C)[C@H]1[C@@H]2C (some centres undefined),inactive: > 10 µM
2,O=C(O)CCCNS(=O)(=O)c1ccc2ccccc2c1,inactive: > 100 µM
3,CCCCSC1=N/C(=C\c2ccc(N(C)C)cc2)C(Cl)=N1,inactive: > 100 µM
4,CC1=C(C)CC2C(=O)N(c3cc(C(C)(C)C)ccc3C(C)(C)C)C(=O)C2C1 (centres undefined),inactive: > 100 µM
5,O=c1c2ccccc2n2cnc3ccc(NCCNCCO)c1c32,inactive: 1.4 µM
6,O=C1[C@H]2ON(c3ccccc3)C(c3ccccc3)[C@H]2C(=O)N1c1ccc(Cc2ccc(N3C(=O)[C@@H]4ON(c5ccccc5)C(c5ccccc5)[C@@H]4C3=O)cc2)cc1 (some centres undefined),inactive: > 100 µM
7,O=[N+]([O-])c1cc2c(cc1/C=N/n1c(CO)nc3ccccc31)OCO2,inactive: > 100 µM
8,CC1=C(O)C(=O)C[C@]2(C)[C@H]3CC=C4[C@@H]5CC(C)(C)CC[C@@H]5C(=O)[C@H](O)[C@@]4(C)[C@]3(C)CC[C@@H]12,inactive: > 50 µM
9,O=C(O)CCc1nn2c(nc1=O)sc1ccc3ccccc3c12,inactive: > 100 µM
10,COC(=O)c1cc(=O)nc2sc3cccc(C)c3n12,inactive: 53.7 µM
11,CCCCCCCCCCCCc1ccsc1-c1ccc(-c2ccc(-c3sc(-c4cc(CCCCCCCCCCCC)c(-c5ccc(-c6ccc(-c7sccc7CCCCCCCCCCCC)s6)s5)s4)cc3CCCCCCCCCCCC)s2)s1,inactive: > 100 µM
12,COc1ccc2c(c1)[n+]([O-])c(/C(C)=N/NC(N)=S)c(C)[n+]2[O-],inactive: > 56 µM
13,CC(C)(C)c1ccc(O)c(C(c2ccc([N+](=O)[O-])cc2)c2cc(C(C)(C)C)ccc2O)c1,inactive: 3.05 µM
14,O=C(/C=C1\Nc2ccccc2N\C1=C\C(=O)c1ccc(Cl)cc1)c1ccccc1,inactive: 83 µM
15,Cn1nc2ccccc2cc1=O,inactive: > 100 µM
16,C[N+]1(C)CCOC(O)(c2ccccc2)C1 (centres undefined),inactive: > 100 µM
17,O=c1[nH]nc(Cc2ccccc2)n1CCO,inactive: > 100 µM
18,CC(C)N1CC2CC(CN(C(=O)c3ccccc3)C2)C1.[O-][Cl+3]([O-])([O-])O,inactive: > 100 µM
19,CCCCCCCC(CC(=O)NC(CO)C(=O)NC(CO)CC(C)C)OC(=O)CC(CCCCCCC)OC(=O)CC(CCCCCCC)OC1OC(C)C(O)C(OC2OC(C)C(O)C(O)C2OC(C)=O)C1O (centres undefined),inactive: 11.3 µM
20,CCN(CC)/[N+]([O-])=N/OCOC,inactive: > 100 µM
